From article PMC3288238 (Journal of Medicinal Chemistry, 2012)
Where two headings read alike, the source gives them in different places.

Test system: RT16 CHO cells (hFRα)
Details: mean (SEM)
[1] = read-out: IC50 RT16 (+FA), with 200 nM folic acid
[2] = read-out: IC50 RT16 (hFRα), 2 nM LCV, no folic acid

Substance | IC50 [1] [nM] | IC50 [2] [nM]
(S)-2-({2-[4-(2-Amino-4-oxo-4,7-dihydro-3H-pyrrolo[2,3-d]pyrimidin-6-yl)-butyl]-thiophene-3-carbonyl}-amino)-pentanedioic acid [Compound 9] | > 1000 | > 1000
(S)-2-({4-[4-(2-Amino-4-oxo-4,7-dihydro-3H-pyrrolo[2,3-d]pyrimidin-6-yl)-butyl]-thiophene-3-carbonyl}-amino)-pentanedioic acid [Compound 11] | > 1000 | > 1000
